The text below walks through data of the supplement of paper PMC12217912.

The other results are listed elsewhere or left out. Sequences were assembled here from the parent chain. Inactive controls read about 0.05.

B1: TEV protease; numbered along this chain (parent)
chain: MGESLFKGPRDYNPISSSICHLTNESDGHTTSLYGIGFGPFIITNKHLFRRNNGTLVVQSLHGVFKVKDTTTLQQHLVDGRDMIIIRMPKDFPPFPQKLKFREPQREERICLVTTNFQTKSMSSMVSDTSCTFPSGDGIFWKHWIQTKDGQCGSPLVSTRDGFIVGIHSASNFTNTNNYFTSVPKNFMELLTNQEAQQWVSGWRLNADSVLWGGHKVFMVKPEEPFQPVKEATQL

This assay covers variants of B1. Briefly: raw area under fraction-flipped curve 0-4 h after induction (AUC4h, not background-subtracted), DNA-recorder readout of cleavage of the substrate (dimensionless); higher = more cleavage of the substrate by the protease variant. The note with it: temperature: 34 °C; time window: 0-4 h after rhamnose induction. The protocol:
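In vivo DNA recorder in E. coli TOP10(DE3) ΔrhaA at 34 °C. Each TEVp single-site mutant (parent TEVp 0) is paired with a single-site variant of the 7-mer TEVs (canonical ENLYFQ|S). The substrate sits between flexible linkers in a Bxb1-sfGFP-TEVs-SsrA fusion, so cleavage stabilises Bxb1 and speeds flipping of a recombination array, read by NGS. The value is the raw area under the fraction-flipped curve over 0-4 h after rhamnose induction (AUC4h), with ≥20 reads per time point. It is not background-subtracted; inactive controls average about 0.047.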
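Further: Bxb1 expression induced with 0.2% (w/v) L-rhamnose at OD600 near 0.5, cultures sampled hourly, flipped fraction per protease–substrate barcode pair counted by paired-end Illumina sequencing.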

As for MGESLFKGPRDYNPISSSICHLTNESDGHTTSLYGIGFGPFIITNKHLFRRNNGTLVVQSLHGVFKVKDTTTLQQHLVDGRDMIIIRMPKDFPPFPQKLKFREPQREERICLVTTNFQTKSMSSMVSDTSCTFPSGDGIFWKHWIQTKDGQCGSPLVSTRDGFWVGIHSASNFTNTNNYFTSVPKNFMELLTNQEAQQWVSGWRLNADSVLWGGHKVFMVKPEEPFQPVKEATQL [I164W], the “area with substrate ENLYFAS” value is 0.0623, the “area with substrate ENLYFCS” value turned out to be 0.038, the “area with substrate ENLYFES” value was determined as 0.0524 and the “area with substrate ENLYFFS” value stood at 0.0446. The “area with substrate ENLYFHS” value was found to be 0.0528, the “area with substrate ENLYFIS” value came out at 0.0652, the “area with substrate ENLYFKS” value worked out at 0.0488 and the “area with substrate ENLYFLS” value is 0.0545. In addition, the “area with substrate ENLYFMS” value was 0.0457, the “area with substrate ENLYFSS” value is 0.0539, the “area with substrate ENLYFTS” value was determined as 0.0467 and the “area with substrate ENLYFVS” value was determined as 0.0599. The “area with substrate ENLYFWS” value was determined as 0.0377.
With MGESLFKGPRDYNPISSSICHLTNESDGHTTSLYGIGFGPFIITNKHLFRRNNGTLVVQSLHGVFKVKDTTTLQQHLVDGRDMIIIRMPKDFPPFPQKLKFREPQREERICLVTTNFQTKSMSSMVSDTSCTFPSGDGIFWKHWIQTKDGQCGSPLVSTRDGFPVGIHSASNFTNTNNYFTSVPKNFMELLTNQEAQQWVSGWRLNADSVLWGGHKVFMVKPEEPFQPVKEATQL [I164P], the “area with substrate ENLYFAS” value turned out to be 0.0362, the “area with substrate ENLYFCS” value came out at 0.0461, the “area with substrate ENLYFDS” value amounted to 0.0523 and the “area with substrate ENLYFES” value is 0.0534. In addition, the “area with substrate ENLYFFS” value is 0.0626, the “area with substrate ENLYFGS” value was found to be 0.0476, the “area with substrate ENLYFIS” value turned out to be 0.05 and the “area with substrate ENLYFKS” value is 0.0549. For the same variant, the “area with substrate ENLYFMS” value was determined as 0.0515, the “area with substrate ENLYFNS” value came to 0.0568, the “area with substrate ENLYFPS” value was found to be 0.045 and the “area with substrate ENLYFRS” value is 0.041. In addition, the “area with substrate ENLYFSS” value came to 0.0371, the “area with substrate ENLYFTS” value amounted to 0.0527, the “area with substrate ENLYFWS” value came out at 0.0534 and the “area with substrate ENLYFYS” value stood at 0.0521.
Regarding MGESLFKGPRDYNPISSSICHLTNESDGHTTSLYGIGFGPFIITNKHLFRRNNGTLVVQSLHGVFKVKDTTTLQQHLVDGRDMIIIRMPKDFPPFPQKLKFREPQREERICLVTTNFQTKSMSSMVSDTSCTFPSGDGIFWKHWIQTKDGQCGSPLVSTRDGFIVGIHSASNFTDTNNYFTSVPKNFMELLTNQEAQQWVSGWRLNADSVLWGGHKVFMVKPEEPFQPVKEATQL [N175D], the “area with substrate ENLYFAS” value is 0.0587, the “area with substrate ENLYFCS” value was 0.0623, the “area with substrate ENLYFDS” value was determined as 0.0609 and the “area with substrate ENLYFFS” value stood at 0.0728. Also, the “area with substrate ENLYFGS” value worked out at 0.0553, the “area with substrate ENLYFIS” value was 0.0691, the “area with substrate ENLYFKS” value is 0.0677 and the “area with substrate ENLYFLS” value amounted to 0.0599. Further, the “area with substrate ENLYFMS” value was found to be 0.0514, the “area with substrate ENLYFPS” value amounted to 0.0687, the “area with substrate ENLYFWS” value is 0.0643 and the “area with substrate ENLYFYS” value is 0.035.
As for MGESLFKGPRDYNPISSSICHLTNESDGHTTSLYGIGFGPFIITNKHLFRRNNGTLVVQSLHGVFKVKDTTTLQQHLVDGRDMIIIRMPKDFPPFPQKLKFREPQREERICLVTTNFQTKSMSSMVSDTSCTFPSGDGIFWKHWIQTKDGQCGSPLVSTRDGFIVGIHSASNFTNTNNQFTSVPKNFMELLTNQEAQQWVSGWRLNADSVLWGGHKVFMVKPEEPFQPVKEATQL [Y179Q], the “area with substrate ENLYFAS” value came out at 0.0658, the “area with substrate ENLYFCS” value was 0.063, the “area with substrate ENLYFDS” value worked out at 0.0381 and the “area with substrate ENLYFES” value was determined as 0.0734. The “area with substrate ENLYFFS” value worked out at 0.063, the “area with substrate ENLYFGS” value was 0.0591, the “area with substrate ENLYFIS” value was found to be 0.0599 and the “area with substrate ENLYFKS” value is 0.0545. Moreover, the “area with substrate ENLYFLS” value turned out to be 0.0767, the “area with substrate ENLYFMS” value stood at 0.0538, the “area with substrate ENLYFNS” value is 0.0605 and the “area with substrate ENLYFPS” value worked out at 0.0523. Besides, the “area with substrate ENLYFRS” value amounted to 0.05, the “area with substrate ENLYFTS” value came out at 0.05, the “area with substrate ENLYFWS” value is 0.0648 and the “area with substrate ENLYFYS” value was 0.0661.
Consider MGESLFKGPRDYNPISSSICHLTNESDGHTTSLYGIGFGPFIITNKHLFRRNNGTLVVQSLHGVFKVKDTTTLQQHLVDGRDMIIIRMPKDFPPFPQKLKFREPQREERICLVTTNFQTKSMSSMVSDTSCTFPSGDGIFWKHWIQTKDGQCGSPLVSTRDGFIVGIHSASNFTNTNNYFYSVPKNFMELLTNQEAQQWVSGWRLNADSVLWGGHKVFMVKPEEPFQPVKEATQL [T181Y], for which the “area with substrate ENLYFAS” value is 0.0552, the “area with substrate ENLYFCS” value turned out to be 0.0495, the “area with substrate ENLYFES” value turned out to be 0.0446 and the “area with substrate ENLYFFS” value turned out to be 0.0602. Also, the “area with substrate ENLYFGS” value was 0.0641, the “area with substrate ENLYFIS” value is 0.0522, the “area with substrate ENLYFKS” value came out at 0.0689 and the “area with substrate ENLYFLS” value came out at 0.0582. The “area with substrate ENLYFMS” value was determined as 0.0517, the “area with substrate ENLYFNS” value turned out to be 0.0657, the “area with substrate ENLYFPS” value was determined as 0.0833 and the “area with substrate ENLYFRS” value turned out to be 0.0685. The “area with substrate ENLYFSS” value came out at 0.0562, the “area with substrate ENLYFVS” value was 0.0774, the “area with substrate ENLYFWS” value worked out at 0.0519 and the “area with substrate ENLYFYS” value stood at 0.0519.
Consider MGESLFKGPRDYNPISSSICHLTNESDGHTTSLYGIGFGPFIITNKHLFRRNNGTLVVQSLHGVFKVKDTTTLQQHLVDGRDMIIIRMPKDFPPFPQKLKFREPQREERICLVTTNFQTKSMSSMVSDTSCTFPSGDGIFWKHWIQTKDGQCGSPLVSTRDGFIVGIHRASNFTNTNNYFTSVPKNFMELLTNQEAQQWVSGWRLNADSVLWGGHKVFMVKPEEPFQPVKEATQL [S169R], for which the “area with substrate ENLYFAS” value worked out at 0.0625, the “area with substrate ENLYFCS” value turned out to be 0.0561, the “area with substrate ENLYFDS” value stood at 0.0591 and the “area with substrate ENLYFES” value turned out to be 0.0599. Further, the “area with substrate ENLYFHS” value worked out at 0.0555, the “area with substrate ENLYFKS” value was 0.0823, the “area with substrate ENLYFLS” value is 0.055 and the “area with substrate ENLYFMS” value was determined as 0.0603. Also, the “area with substrate ENLYFNS” value turned out to be 0.0575, the “area with substrate ENLYFPS” value stood at 0.056, the “area with substrate ENLYFSS” value was found to be 0.0352 and the “area with substrate ENLYFVS” value amounted to 0.0554. In addition, the “area with substrate ENLYFWS” value came out at 0.0699 and the “area with substrate ENLYFYS” value stood at 0.0554.
With MGESLFKGPRDYNPISSSICHLTNESDGHTTSLYGIGFGPFIITNKHLFRRNNGTLVVQSLHGVFKVKDTTTLQQHLVDGRDMIIIRMPKDFPPFPQKLKFREPQREERICLVTTNFQTKSMSSMVSDTSCTFPSGDGIFWKHWIQTKDGQCGSPLVSTRTGFIVGIHSASNFTNTNNYFTSVPKNFMELLTNQEAQQWVSGWRLNADSVLWGGHKVFMVKPEEPFQPVKEATQL [D161T], the “area with substrate ENLYFAS” value was found to be 0.0571, the “area with substrate ENLYFCS” value worked out at 0.0543, the “area with substrate ENLYFDS” value was 0.0604 and the “area with substrate ENLYFES” value worked out at 0.0654. The “area with substrate ENLYFFS” value amounted to 0.0765, the “area with substrate ENLYFHS” value amounted to 0.055, the “area with substrate ENLYFIS” value was 0.0635 and the “area with substrate ENLYFKS” value came to 0.0495. Further, the “area with substrate ENLYFMS” value was determined as 0.06, the “area with substrate ENLYFNS” value was found to be 0.0751, the “area with substrate ENLYFPS” value was found to be 0.0515 and the “area with substrate ENLYFRS” value amounted to 0.0507. The “area with substrate ENLYFTS” value came to 0.0635, the “area with substrate ENLYFVS” value amounted to 0.048, the “area with substrate ENLYFWS” value was 0.0693 and the “area with substrate ENLYFYS” value was determined as 0.0593.
For the variant MGESLFKGPRDYNPISSSICHLTNESDGHTTSLYGIGFGPFIITNKHLFRRNNGTLVVQSLHGVFKVKDTTTLQQHLVDGRDMIIIRMPKDFPPFPQKLKFREPQREERICLVTTNFQTKSMSSMVSDTSCTFPSGDGIFWKHWIQTKDGQCGSPLVSTRDGFIVGIHSASNFTNTNNYFTSVPENFMELLTNQEAQQWVSGWRLNADSVLWGGHKVFMVKPEEPFQPVKEATQL [K185E], the “area with substrate ENLYFAS” value was determined as 0.0548, the “area with substrate ENLYFDS” value was 0.0584, the “area with substrate ENLYFES” value stood at 0.0678 and the “area with substrate ENLYFFS” value amounted to 0.0625. The “area with substrate ENLYFGS” value is 0.102, the “area with substrate ENLYFHS” value is 0.0379, the “area with substrate ENLYFKS” value stood at 0.0577 and the “area with substrate ENLYFMS” value stood at 0.0696. Further, the “area with substrate ENLYFNS” value came out at 0.0812, the “area with substrate ENLYFSS” value worked out at 0.041, the “area with substrate ENLYFTS” value turned out to be 0.0723 and the “area with substrate ENLYFWS” value came to 0.0507. Also, the “area with substrate ENLYFYS” value was determined as 0.0588.
For MGESLFKGPRDYNPISSSICHLTNESDGHTTSLYGIGFGPFIITNKHLFRRNNGTLVVQSLHGVFKVKDTTTLQQHLVDGRDMIIIRMPKDFPPFPQKLKFREPQREERICLVTTNFQTKSMSSMVSDTSCTFPSGDGIFWKHWIQTKDGQCGSPLVSTRDGFIVGIHSASNFTNWNNYFTSVPKNFMELLTNQEAQQWVSGWRLNADSVLWGGHKVFMVKPEEPFQPVKEATQL [T176W], the “area with substrate ENLYFAS” value amounted to 0.0546, the “area with substrate ENLYFDS” value was 0.0446, the “area with substrate ENLYFES” value came out at 0.0673 and the “area with substrate ENLYFFS” value amounted to 0.0828. Also, the “area with substrate ENLYFGS” value was found to be 0.0458, the “area with substrate ENLYFHS” value worked out at 0.0578, the “area with substrate ENLYFIS” value was 0.0534 and the “area with substrate ENLYFMS” value is 0.0542. For the same variant, the “area with substrate ENLYFNS” value was 0.0636, the “area with substrate ENLYFRS” value worked out at 0.036 and the “area with substrate ENLYFWS” value was found to be 0.0434.
